From the supplement of paper PMC7125110 come the findings set out here.

B1: glmS ribozyme (parent)
chain: AUAAAAGCGCCAGAACUACAGAAAUGUAGUUGACGAGGAGGAGGUUUAUCGAAUUUUCGGCGGAUGCCUCCAAA

Details in all cases: with glucosamine-6-phosphate
Variants of B1 are the subject of series [1]. Briefly: self-cleavage kobs at 640 uM GlcN6P; higher = faster cleavage; RNA array. Summed up: (§1)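 Using a hybridised Cy3 probe at 37 °C, barcoded ribozyme variants transcribed in situ by E. coli RNA polymerase on sequenced MiSeq chips were monitored across tiles imaged over ~14 h. The flow contained glucosamine-6-phosphate from 40 μM to 10 mM in HEPES/KCl/Mg(OAc)2 buffer. Signals were normalised to baseline and to non-cleaving reference variants before per-tile medians were fit to one- or two-exponential decays to yield kobs. Weighted Michaelis–Menten fits across concentrations gave kcat and KM.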

In series [2] the parent is B1. Briefly: self-cleavage kobs at 160 uM GlcN6P; higher = faster cleavage; RNA array. An outline of the steps: as §1
In series [3] the parent is B1. Briefly: self-cleavage kobs at 2500 uM GlcN6P; higher = faster cleavage; RNA array. Summed up:
as §1

The variants in series [4] derive from B1. Description: self-cleavage kobs at 10000 uM GlcN6P; higher = faster cleavage; RNA array. An outline of the steps:
as §1

± gives the standard error. This sample is rich in variants without activity. A value given as a limit tells only on which side of the number the result lay.

As to AUAAAUGCGCGAGCACUACAGAAAUGUAGUUGACGAGGAGUAGGUUUAUCGAAUUUUCGGCGGAUGCCUCCAAA [A6U C11G A14C G41U], the “self-cleavage kobs at 640 uM GlcN6P” value in series [1] is less than 1e-05 s⁻¹.
As to AUAAAAACGCCAGAGCUACAGAAAUGUAGUUGACGAGGAGGAGGUUUAUCGAAUUUUCGGCGGAUGCCUCCAAA [G7A A15G], in series [1], the “self-cleavage kobs at 640 uM GlcN6P” value is less than 1e-05 s⁻¹. The “self-cleavage kobs at 160 uM GlcN6P” value in series [2] was less than 1e-05 s⁻¹.
With AUAAAUGCGCCAGAAUUACAGAAAUGUAGUUGACGAGGAGGAGGUUUAUCGAAUUUUCGGCGGAUGCCUCCAAA [A6U C16U], the “self-cleavage kobs at 640 uM GlcN6P” value in series [1] is 6.36e-05 ± 7.9e-06 s⁻¹. Moreover, the “self-cleavage kobs at 160 uM GlcN6P” value in series [2] was determined as 2.54e-05 ± 9.5e-06 s⁻¹. Also, in series [3], the “self-cleavage kobs at 2500 uM GlcN6P” value stood at 0.000118 ± 1.2e-05 s⁻¹. In addition, the “self-cleavage kobs at 10000 uM GlcN6P” value in series [4] turned out to be 0.00021 ± 1.7e-05 s⁻¹.
With AUAAAUCCGCCAUAACUACAGAAAUGUAGUUGACGCGGAGGAGGUUUAUCGAAUUUUCGGCGGAUGCCUCCAAA [A6U G7C G13U A36C], the “self-cleavage kobs at 640 uM GlcN6P” value in series [1] was less than 1e-05 s⁻¹.
Consider AUAAAUGCGCCAGAACUACAGAAAUGUAGUUGACGAGGAGGAGGUUUAUCGAAUGUUCGGCGGAUGCCUCCAAA [A6U U55G], for which, in series [1], the “self-cleavage kobs at 640 uM GlcN6P” value was 4.48e-05 ± 1e-05 s⁻¹. Moreover, the “self-cleavage kobs at 2500 uM GlcN6P” value in series [3] stood at 0.000118 ± 1.9e-05 s⁻¹. The “self-cleavage kobs at 10000 uM GlcN6P” value in series [4] is 0.000416 ± 6.4e-05 s⁻¹.
For the variant AUAAAUGCGCCAGAACUACAGAAAUGUAUUUGACGAGGAGGAGGUUUAUCGCAUUUUCGGCGGAUGCCUCCAAA [A6U G29U A52C], the “self-cleavage kobs at 640 uM GlcN6P” value in series [1] was less than 1e-05 s⁻¹.
On the same count and under the same terms, then AUAAAUGUGCCAGAAGUACAGAAAUGUAGUUGACGAGGAAGAGGUUUAUCGAAUUUUCAGGGGAUGCCUCUAAA [A6U C8U C16G G40A G59A C61G C71U], with less than 1e-05 s⁻¹; and AUAAAAACGCCAGCACUACAGAAAUGUAGGUGACGCGUAGGAGGUUUAUCGGAUUUUCGGCGGAUGCCUCUAAA [G7A A14C U30G A36C G38U A52G C71U], with less than 1e-05 s⁻¹.
AUAAAAACCCCAGAACUACAGAAAUGUAGUUGUCGAGGAGGAGGUUUAUCGAAUUUUCGGCGGAUCCCUCCAAA [G7A G9C A33U G66C]: the “self-cleavage kobs at 640 uM GlcN6P” value in series [1] was less than 1e-05 s⁻¹. Also, the “self-cleavage kobs at 2500 uM GlcN6P” value in series [3] was less than 1e-05 s⁻¹.
Turning to AUAAAAACGCCAGAACUACAGAAAUGUAGUUGACGAGGAGGAGGUUUAUCGAAUUUUCGGCGGAUGGCACCAAA [G7A C67G U69A], the “self-cleavage kobs at 640 uM GlcN6P” value in series [1] is less than 1e-05 s⁻¹. In addition, in series [3], the “self-cleavage kobs at 2500 uM GlcN6P” value was less than 1e-05 s⁻¹. Besides, in series [4], the “self-cleavage kobs at 10000 uM GlcN6P” value is less than 1e-05 s⁻¹.
Consider AUAAAGGCGCCAGAACUACAGAAAUGUAGGUGACGAGGAGGACGUUUAUCGAAUUUUCGUCGGAUGCCUCGAAA [A6G U30G G43C G60U C71G], for which, in series [1], the “self-cleavage kobs at 640 uM GlcN6P” value is less than 1e-05 s⁻¹.
Consider AUAAAUGCGCCAGAACUACAGAAAUGUAGUUGGCGAGGAGGAGGUUUAUCGAAAUUUCGGCGGAUGCCUCCAAA [A6U A33G U54A], for which the “self-cleavage kobs at 640 uM GlcN6P” value in series [1] was less than 1e-05 s⁻¹.
Take AUAAAGGCGCCAGAACUACAGAAAUGUAGUUGACGAGGAGGAGGUAUAUUGAUUUUGCGGCGGAUGCCUCCAAA [A6G U46A C50U A53U U57G]: the “self-cleavage kobs at 640 uM GlcN6P” value in series [1] is less than 1e-05 s⁻¹. In addition, the “self-cleavage kobs at 160 uM GlcN6P” value in series [2] is less than 1e-05 s⁻¹. Also, the “self-cleavage kobs at 2500 uM GlcN6P” value in series [3] was less than 1e-05 s⁻¹.
In the case of AUAAAAACGCCAGAAGUACAGAAAUUUAAUUGAAGAGGAGGAGGUUUAUCGAAUUUUCCGCGGAUGCCUCCAAA [G7A C16G G26U G29A C34A G59C], the “self-cleavage kobs at 640 uM GlcN6P” value in series [1] was less than 1e-05 s⁻¹. The “self-cleavage kobs at 2500 uM GlcN6P” value in series [3] was less than 1e-05 s⁻¹.
AUAAAAACGAUAGAACUACAGAAAUGUAGUUGACGCGGGGGAGGUUUAUCGAAUUUUCGGCGGAUGCCUCCAAA [G7A C10A C11U A36C A39G]: the “self-cleavage kobs at 640 uM GlcN6P” value in series [1] was less than 1e-05 s⁻¹. For the same variant, in series [3], the “self-cleavage kobs at 2500 uM GlcN6P” value is less than 1e-05 s⁻¹.
As to AUAAAUGCGCUAGAACUACAGAAAUGUAGUUGACGAGGACGAGGUUUAUCGAAUUUCCGGCGGAUGCCUCCAAA [A6U C11U G40C U57C], the “self-cleavage kobs at 640 uM GlcN6P” value in series [1] was less than 1e-05 s⁻¹. In addition, the “self-cleavage kobs at 160 uM GlcN6P” value in series [2] was less than 1e-05 s⁻¹. In addition, the “self-cleavage kobs at 2500 uM GlcN6P” value in series [3] was less than 1e-05 s⁻¹.
Consider AUAAAUGAGCCAGAACUACAGAAAUGUAGUUGACGAGGAGGAUGUUUAUCGACUUUUCGGCCGAUGCCUCCAAA [A6U C8A G43U A53C G62C], for which, in series [1], the “self-cleavage kobs at 640 uM GlcN6P” value was less than 1e-05 s⁻¹.
AUAAAGGCGCCAGAACUACAGAAAUGUAGUUGACGAGGAGGAGGUUUAUCGAAUUUUCCGCGGAUGCCUCCAAA [A6G G59C]: the “self-cleavage kobs at 640 uM GlcN6P” value in series [1] was less than 1e-05 s⁻¹. The “self-cleavage kobs at 160 uM GlcN6P” value in series [2] is less than 1e-05 s⁻¹. Moreover, the “self-cleavage kobs at 2500 uM GlcN6P” value in series [3] was less than 1e-05 s⁻¹.
On to AUAAAAACGCCAGAACUACAGAAAUGUAGUUAACGAGGAGGAGGUUUAUCGAAUUUUCGGCGGAGGCCUCCAAA [G7A G32A U65G], for which the “self-cleavage kobs at 640 uM GlcN6P” value in series [1] is less than 1e-05 s⁻¹.
